Measurements from the supplement of paper PMC7826260.
This is one part of the list. Cleavage of a single-stranded DNA pool by Rep nickase domains was read by sequencing for 1 h at 37 °C with 3 µM enzyme; only the middle of the 90-letter strands is printed. Numbers give uncut DNA relative to the enzyme-free pool, as log2; uncut sequences lie near 0, cut ones below; no hit call is given. Counts are relative to all reads; where an enzyme cuts many sequences, the uncut ones exceed 0.

Legend:
Test in all cases: uncleaved DNA left, log2 of reads against the no-enzyme library (log2 ratio); higher = less cleavage (more negative = more Rep cleavage of the k-mer); sequences stand for … in CTCGTCCG…ACCGGAGA
[1] = test system: T1, Rep nickase domain of Muscovy duck circovirus
T1 sequence (residues 1-111 of Rep, tag left off): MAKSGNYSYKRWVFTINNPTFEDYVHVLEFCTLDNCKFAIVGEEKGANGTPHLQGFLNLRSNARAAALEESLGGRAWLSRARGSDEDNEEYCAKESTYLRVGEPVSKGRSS
Procedure: (§1)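 A pool of 90-nt single-stranded DNAs with seven random bases just before the constant AC of the nick site (name = the seven bases) was cut by 3 µM recombinant His6-SUMO-tagged Rep nickase domain (300 nM DNA, 50 mM HEPES pH 8.0, 50 mM NaCl, 1 mM MnCl2, 1 h, 37 °C, three replicates). Uncut DNA was amplified and sequenced.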

[2] = test system: T2, Rep nickase domain of banana bunchy top virus
T2 sequence (residues 1-94 of Rep, tag left off): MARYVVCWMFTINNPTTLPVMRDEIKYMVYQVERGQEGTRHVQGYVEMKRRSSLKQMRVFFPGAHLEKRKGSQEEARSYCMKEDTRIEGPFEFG
Procedure: as §1

[3] = test system: T3, Rep nickase domain of cabbage leaf curl virus
T3 sequence (residues 1-116 of Rep, tag left off): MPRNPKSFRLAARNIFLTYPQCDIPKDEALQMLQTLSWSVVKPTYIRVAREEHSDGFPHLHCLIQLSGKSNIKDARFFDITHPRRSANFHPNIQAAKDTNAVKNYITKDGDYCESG
Procedure: as §1

[4] = test system: T4, Rep nickase domain of chickpea chlorotic dwarf virus
T4 sequence (residues 1-124 of Rep, tag left off): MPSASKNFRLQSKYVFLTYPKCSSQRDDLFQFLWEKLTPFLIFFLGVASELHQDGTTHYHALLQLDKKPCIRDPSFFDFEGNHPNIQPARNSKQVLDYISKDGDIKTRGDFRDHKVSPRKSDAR
Procedure: as §1

[5] = test system: T5, Rep nickase domain of faba bean necrotic yellows virus
T5 sequence (residues 1-98 of Rep, tag left off): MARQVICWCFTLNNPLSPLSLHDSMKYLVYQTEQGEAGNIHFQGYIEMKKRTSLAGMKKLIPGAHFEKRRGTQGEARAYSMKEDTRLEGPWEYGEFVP
Procedure: as §1

[6] = test system: T6, Rep nickase domain of maize striate mosaic virus
T6 sequence (residues 1-117 of Rep, tag left off): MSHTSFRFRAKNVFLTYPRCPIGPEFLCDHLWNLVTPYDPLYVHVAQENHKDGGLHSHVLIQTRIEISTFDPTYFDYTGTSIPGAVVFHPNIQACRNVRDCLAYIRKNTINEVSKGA
Procedure: as §1

[7] = test system: T7, Rep nickase domain of porcine circovirus 2
T7 sequence (residues 2-116 of Rep, tag left off): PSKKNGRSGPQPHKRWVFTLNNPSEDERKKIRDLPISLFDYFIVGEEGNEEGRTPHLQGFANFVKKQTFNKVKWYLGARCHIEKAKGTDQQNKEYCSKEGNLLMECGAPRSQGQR
Procedure: as §1

[8] = test system: T8, Rep nickase domain of tomato golden mosaic virus
T8 sequence (residues 1-124 of Rep, tag left off): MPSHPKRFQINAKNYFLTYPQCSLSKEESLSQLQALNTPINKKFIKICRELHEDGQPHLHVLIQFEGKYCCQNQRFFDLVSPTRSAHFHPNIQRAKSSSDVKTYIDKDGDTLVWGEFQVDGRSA
Procedure: as §1

[9] = test system: T9, Rep nickase domain of tomato yellow leaf curl virus
T9 sequence (residues 1-136 of Rep, tag left off): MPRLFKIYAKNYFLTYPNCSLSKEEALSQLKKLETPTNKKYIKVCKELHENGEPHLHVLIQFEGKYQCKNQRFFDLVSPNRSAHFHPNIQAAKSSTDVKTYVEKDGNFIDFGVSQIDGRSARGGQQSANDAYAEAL
Procedure: as §1

[10] = test system: T10, Rep nickase domain of wheat dwarf virus
T10 sequence (residues 1-137 of Rep, tag left off): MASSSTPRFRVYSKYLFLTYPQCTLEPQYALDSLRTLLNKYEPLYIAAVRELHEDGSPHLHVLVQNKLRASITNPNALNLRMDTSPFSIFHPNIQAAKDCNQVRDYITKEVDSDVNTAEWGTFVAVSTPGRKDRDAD
Procedure: as §1

Sequence	uncleaved DNA left (log2) [1]	uncleaved DNA left (log2) [2]	uncleaved DNA left (log2) [3]	uncleaved DNA left (log2) [4]	uncleaved DNA left (log2) [5]	uncleaved DNA left (log2) [6]	uncleaved DNA left (log2) [7]	uncleaved DNA left (log2) [8]	uncleaved DNA left (log2) [9]	uncleaved DNA left (log2) [10]
TTCGAGT	-0.0494	-0.0951	0.0257	-0.207	0.0542	-0.52	-0.056	-0.0851	-0.0476	-0.0619
CTTCCCG	-0.254	-0.00205	-1	-0.251	-0.0498	-0.995	-0.983	-0.0765	-0.114	-0.0909
GTGAGGC	0.00715	-0.0107	0.345	0.911	-0.02	1.58	0.054	0.109	0.142	0.105
TGGGTAT	0.0771	0.0497	0.583	1.72	-0.027	2.05	0.241	0.0968	0.0239	0.0471
CATTGCT	-0.461	-0.793	-0.422	0.402	0.0441	0.38	-1.2	-0.151	0.0419	-0.159
CCCCAGT	-0.163	-0.00926	-0.353	-0.959	-0.263	-0.902	-0.224	-0.125	-0.0631	-0.18
GGAGGGG	0.104	-0.0427	0.537	0.839	-0.183	1.07	0.256	0.0456	0.0734	-0.0833
ACAGTAC	0.0559	0.0431	-0.21	-0.773	0.0751	-0.78	0.126	0.191	-0.141	0.00709
CGAGGCT	-0.0467	-0.108	9.68e-05	-0.392	-0.125	-0.232	-0.149	-0.00602	0.0116	-0.0613
GTCTGTC	0.0757	0.147	0.37	0.888	0.0673	1.39	0.163	0.129	0.0793	0.181
GTATGGT	-0.464	-0.0319	0.228	0.466	0.012	1.5	-0.19	0.0702	0.0028	0.035
GAAATTG	0.0247	0.0352	-0.265	-0.283	0.0862	-0.921	0.144	0.00617	0.0267	-0.0175
GATTAAT	-2.86	-2.88	0.244	-0.0525	-0.25	1.24	-2.96	-0.0453	0.0695	0.0318
TTGATGG	-0.0395	-0.0157	0.189	0.595	0.0296	0.277	0.113	-0.0325	-0.0766	-0.045
CTGTCGT	0.0204	-0.16	-0.596	-0.812	0.0668	-1.08	-0.336	-0.065	-0.0514	-0.0295
